# From article PMC5700166
# Only a part is listed here, and it is no random draw. For part of these data: The list includes weakly bound sequences.
# Experiments:
# Assay in all cases: protein-binding microarray (PBM)
# Conditions in all cases: PBM: ~300 nM protein, 6 mM HEPES pH 7.8, 80 mM KCl, 0.5 mM EDTA, 0.5 mM EGTA, 6% glycerol, 35 ng/ul poly-dIdC, 1% milk, 1 h, room temperature; Ap Aiptasia and Nv Nematostella (sea anemones) / Co Capsaspora / Aq Amphimedon (sponge) / Dm Drosophila / Hu human; RHD is the Rel homology domain; high values mean tight binding; most listed sequences are background and not binding sites; double strand, one strand shown
# GST-Ap-NF-kB RHD = target: T1, GST-Ap-NF-kB RHD (UniProt A0A913YAJ5)
# T1 sequence: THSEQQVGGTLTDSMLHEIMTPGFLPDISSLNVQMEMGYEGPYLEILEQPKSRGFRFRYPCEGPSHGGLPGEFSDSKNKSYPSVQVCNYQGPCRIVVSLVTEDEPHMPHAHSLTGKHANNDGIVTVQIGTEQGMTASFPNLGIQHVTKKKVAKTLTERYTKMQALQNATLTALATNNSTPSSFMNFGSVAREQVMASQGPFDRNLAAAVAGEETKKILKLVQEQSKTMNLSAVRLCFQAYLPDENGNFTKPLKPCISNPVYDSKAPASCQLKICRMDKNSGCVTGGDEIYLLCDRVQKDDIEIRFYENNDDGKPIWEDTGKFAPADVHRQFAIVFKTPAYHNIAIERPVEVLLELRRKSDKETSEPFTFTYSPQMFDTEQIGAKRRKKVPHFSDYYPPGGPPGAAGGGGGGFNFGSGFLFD
# GST-Dm-Relish = target: T2, GST-Dm-Relish (UniProt Q94527)
# T2 sequence: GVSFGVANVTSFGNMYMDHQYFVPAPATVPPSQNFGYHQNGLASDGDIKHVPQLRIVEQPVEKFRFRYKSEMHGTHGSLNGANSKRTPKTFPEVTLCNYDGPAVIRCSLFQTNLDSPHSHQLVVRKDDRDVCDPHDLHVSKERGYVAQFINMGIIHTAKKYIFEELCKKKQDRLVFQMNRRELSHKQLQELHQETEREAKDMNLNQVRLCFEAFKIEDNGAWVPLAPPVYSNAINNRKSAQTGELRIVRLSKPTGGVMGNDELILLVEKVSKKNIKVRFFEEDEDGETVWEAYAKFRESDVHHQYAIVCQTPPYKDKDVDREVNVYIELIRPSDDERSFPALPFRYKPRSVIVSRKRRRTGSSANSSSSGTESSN
# [1] = target: T3, GST-Nv-NF-kB (Cys allele) (UniProt E5G601)
# T3 sequence: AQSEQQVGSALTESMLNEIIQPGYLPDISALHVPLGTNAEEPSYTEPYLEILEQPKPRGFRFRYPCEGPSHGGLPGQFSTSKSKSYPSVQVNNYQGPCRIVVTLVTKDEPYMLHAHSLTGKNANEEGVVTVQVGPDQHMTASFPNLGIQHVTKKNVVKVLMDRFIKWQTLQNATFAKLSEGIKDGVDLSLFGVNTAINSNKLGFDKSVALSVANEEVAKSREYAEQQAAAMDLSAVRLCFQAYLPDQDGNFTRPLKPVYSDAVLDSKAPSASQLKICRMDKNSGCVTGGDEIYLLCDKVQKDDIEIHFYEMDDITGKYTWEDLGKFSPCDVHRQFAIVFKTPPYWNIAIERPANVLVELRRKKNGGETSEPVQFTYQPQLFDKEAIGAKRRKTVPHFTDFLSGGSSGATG
# GST-Co-NF-kB = target: T4, GST-Co-NF-kB (UniProt F1ARL5)
# T4 sequence: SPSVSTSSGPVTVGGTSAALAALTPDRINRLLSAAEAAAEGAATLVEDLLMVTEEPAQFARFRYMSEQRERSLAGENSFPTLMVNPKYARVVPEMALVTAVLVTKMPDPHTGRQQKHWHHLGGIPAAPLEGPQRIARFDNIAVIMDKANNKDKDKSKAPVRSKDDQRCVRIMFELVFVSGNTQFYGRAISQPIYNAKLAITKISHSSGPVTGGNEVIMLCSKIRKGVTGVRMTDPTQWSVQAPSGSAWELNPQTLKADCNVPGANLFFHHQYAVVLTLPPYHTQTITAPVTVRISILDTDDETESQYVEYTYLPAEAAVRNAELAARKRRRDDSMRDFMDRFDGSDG
sequence,measurement,setting,value
CCGATTAACATCAGGGAAAAGGATGATGTTAATCGGGTCTTGATTCGCTTGACGCTGCTG,binding signal,GST-Ap-NF-kB RHD,1.79 z-score
same,binding signal,GST-Dm-Relish,-0.321 z-score
CCGATTAACATCAGGGATATACCTGATGTTAATCGGGTCTTGATTCGCTTGACGCTGCTG,binding signal,GST-Ap-NF-kB RHD,3.17 z-score
same,binding signal,GST-Dm-Relish,6.4 z-score
CCGATTAACATCAGAACATCCCCTGATGTTAATCGGGTCTTGATTCGCTTGACGCTGCTG,binding signal,GST-Ap-NF-kB RHD,6.05 z-score
same,binding signal,GST-Dm-Relish,6.69 z-score
CCGATTAACATCAGTTTGGGAAATGATGTTAATCGGGTCTTGATTCGCTTGACGCTGCTG,binding signal,GST-Ap-NF-kB RHD,0.864 z-score
same,binding signal,GST-Dm-Relish,0.71 z-score
CCGATTAACATCATGGAGGGAGGTGATGTTAATCGGGTCTTGATTCGCTTGACGCTGCTG,binding signal,GST-Ap-NF-kB RHD,1.29 z-score
same,binding signal,GST-Dm-Relish,0.416 z-score
CCGATTAACATCAGGGGAGTCCATGATGTTAATCGGGTCTTGATTCGCTTGACGCTGCTG,binding signal,GST-Ap-NF-kB RHD,6.16 z-score
same,binding signal,GST-Dm-Relish,6.79 z-score
CCGATTAACATCAAATTCCCATGTGATGTTAATCGGGTCTTGATTCGCTTGACGCTGCTG,binding signal,GST-Ap-NF-kB RHD,2.41 z-score
same,binding signal,GST-Dm-Relish,3.99 z-score
CCGATTAACATCAGGGGGAACGATGATGTTAATCGGGTCTTGATTCGCTTGACGCTGCTG,binding signal,GST-Ap-NF-kB RHD,5.18 z-score
same,binding signal,GST-Dm-Relish,2.42 z-score
CCGATTAACATCAATTCCCCAGGTGATGTTAATCGGGTCTTGATTCGCTTGACGCTGCTG,binding signal,GST-Ap-NF-kB RHD,5.33 z-score
same,binding signal,GST-Dm-Relish,2.37 z-score
CCGATTAACATCAGGGATTCACCTGATGTTAATCGGGTCTTGATTCGCTTGACGCTGCTG,binding signal,GST-Ap-NF-kB RHD,5.22 z-score
same,binding signal,GST-Dm-Relish,9.89 z-score
CCGATTAACATCAGGGGGACTACTGATGTTAATCGGGTCTTGATTCGCTTGACGCTGCTG,binding signal,GST-Ap-NF-kB RHD,6.49 z-score
same,binding signal,GST-Dm-Relish,6.39 z-score
CCGATTAACATCAACGGGAATTCTGATGTTAATCGGGTCTTGATTCGCTTGACGCTGCTG,binding signal,GST-Ap-NF-kB RHD,4.32 z-score
same,binding signal,GST-Dm-Relish,4.15 z-score
CCGATTAACATCAAAAAATACCCTGATGTTAATCGGGTCTTGATTCGCTTGACGCTGCTG,binding signal,GST-Ap-NF-kB RHD,6.17 z-score
same,binding signal,GST-Dm-Relish,8.93 z-score
CCGATTAACATCACAGAAACCCCTGATGTTAATCGGGTCTTGATTCGCTTGACGCTGCTG,binding signal,GST-Ap-NF-kB RHD,5.66 z-score
same,binding signal,GST-Dm-Relish,6.6 z-score
CCGATTAACATCACTTCGGGAAATGATGTTAATCGGGTCTTGATTCGCTTGACGCTGCTG,binding signal,GST-Ap-NF-kB RHD,0.969 z-score
same,binding signal,GST-Dm-Relish,0.577 z-score
CCGATTAACATCAGGACGCCCCCTGATGTTAATCGGGTCTTGATTCGCTTGACGCTGCTG,binding signal,GST-Ap-NF-kB RHD,6.15 z-score
same,binding signal,GST-Dm-Relish,3.85 z-score
CCGATTAACATCACCATGGGAAATGATGTTAATCGGGTCTTGATTCGCTTGACGCTGCTG,binding signal,GST-Ap-NF-kB RHD,1.25 z-score
same,binding signal,GST-Dm-Relish,0.699 z-score
CCGATTAACATCAAGGTTCCCCCTGATGTTAATCGGGTCTTGATTCGCTTGACGCTGCTG,binding signal,GST-Ap-NF-kB RHD,8.03 z-score
same,binding signal,GST-Dm-Relish,5.67 z-score
CCGATTAACATCACGTGATTCCCTGATGTTAATCGGGTCTTGATTCGCTTGACGCTGCTG,binding signal,GST-Ap-NF-kB RHD,2.22 z-score
same,binding signal,GST-Dm-Relish,8.61 z-score
CCGATTAACATCATTCCCGGAAATGATGTTAATCGGGTCTTGATTCGCTTGACGCTGCTG,binding signal,GST-Ap-NF-kB RHD,0.905 z-score
same,binding signal,GST-Dm-Relish,1.05 z-score
CCGATTAACATCAAGCAATCCCCTGATGTTAATCGGGTCTTGATTCGCTTGACGCTGCTG,binding signal,GST-Ap-NF-kB RHD,6.44 z-score
same,binding signal,GST-Dm-Relish,5.11 z-score
CCGATTAACATCACATTGGGAAATGATGTTAATCGGGTCTTGATTCGCTTGACGCTGCTG,binding signal,GST-Ap-NF-kB RHD,0.714 z-score
same,binding signal,GST-Dm-Relish,1.18 z-score
CCGATTAACATCAACTGGGAAAATGATGTTAATCGGGTCTTGATTCGCTTGACGCTGCTG,binding signal,GST-Ap-NF-kB RHD,1.66 z-score
same,binding signal,GST-Dm-Relish,0.347 z-score
CCGATTAACATCACGGGAACTCCTGATGTTAATCGGGTCTTGATTCGCTTGACGCTGCTG,binding signal,GST-Ap-NF-kB RHD,3.24 z-score
same,binding signal,GST-Dm-Relish,6.49 z-score
CCGATTAACATCAGGGGCTACCCTGATGTTAATCGGGTCTTGATTCGCTTGACGCTGCTG,binding signal,GST-Ap-NF-kB RHD,4.03 z-score
same,binding signal,GST-Dm-Relish,3.48 z-score
CCGATTAACATCAGGGGATTTCATGATGTTAATCGGGTCTTGATTCGCTTGACGCTGCTG,binding signal,GST-Ap-NF-kB RHD,9.36 z-score
same,binding signal,GST-Dm-Relish,8.36 z-score
CCGATTAACATCAGTGGGAAACATGATGTTAATCGGGTCTTGATTCGCTTGACGCTGCTG,binding signal,GST-Ap-NF-kB RHD,0.739 z-score
same,binding signal,GST-Dm-Relish,0.501 z-score
CCGATTAACATCACTCCCTAAAATGATGTTAATCGGGTCTTGATTCGCTTGACGCTGCTG,binding signal,GST-Ap-NF-kB RHD,1.35 z-score
same,binding signal,GST-Dm-Relish,0.645 z-score
CCGATTAACATCATGGGTGGGAATGATGTTAATCGGGTCTTGATTCGCTTGACGCTGCTG,binding signal,GST-Ap-NF-kB RHD,1.4 z-score
same,binding signal,GST-Dm-Relish,1.66 z-score
CCGATTAACATCAGGGGGTAGAATGATGTTAATCGGGTCTTGATTCGCTTGACGCTGCTG,binding signal,GST-Ap-NF-kB RHD,4.45 z-score
same,binding signal,GST-Dm-Relish,2.13 z-score
CCGATTAACATCAGGGACGGAAATGATGTTAATCGGGTCTTGATTCGCTTGACGCTGCTG,binding signal,GST-Ap-NF-kB RHD,2.7 z-score
same,binding signal,GST-Dm-Relish,0.258 z-score
CCGATTAACATCAACTTTGGGAATGATGTTAATCGGGTCTTGATTCGCTTGACGCTGCTG,binding signal,GST-Ap-NF-kB RHD,0.544 z-score
same,binding signal,GST-Dm-Relish,0.661 z-score
CCGATTAACATCAGGGAATTGCATGATGTTAATCGGGTCTTGATTCGCTTGACGCTGCTG,binding signal,GST-Ap-NF-kB RHD,2.48 z-score
same,binding signal,GST-Dm-Relish,1.11 z-score
CCGATTAACATCAATTGGGAAAATGATGTTAATCGGGTCTTGATTCGCTTGACGCTGCTG,binding signal,GST-Ap-NF-kB RHD,1.52 z-score
same,binding signal,GST-Dm-Relish,0.367 z-score
CCGATTAACATCACGGAACTCCCTGATGTTAATCGGGTCTTGATTCGCTTGACGCTGCTG,binding signal,[1],3.34 z-score
CCGATTAACATCAAGGGGGAGAATGATGTTAATCGGGTCTTGATTCGCTTGACGCTGCTG,binding signal,[1],6.63 z-score
same,binding signal,GST-Co-NF-kB,7.92 z-score
CCGATTAACATCAAATTTCCCACTGATGTTAATCGGGTCTTGATTCGCTTGACGCTGCTG,binding signal,[1],4.26 z-score
same,binding signal,GST-Co-NF-kB,4.39 z-score
CCGATTAACATCAGGGAAATCTATGATGTTAATCGGGTCTTGATTCGCTTGACGCTGCTG,binding signal,[1],5.31 z-score
same,binding signal,GST-Co-NF-kB,4.52 z-score
